# The campaign covered roughly 360,000 compounds. About 2,600 (0.72%) were called active. This list was built around the results that the source calls inconclusive (neither active nor inactive); the mix of calls is not that of the screen. The call rests on the fitted dose curve; in most records, active means well fitted inhibition curve with a large enough effect; inconclusive means small, poorly fitted or top-dose-only effect; inactive means no such curve, though single readings can be large or run the other way. Potencies beside an inconclusive call are fits to weak or partial responses and may not hold up.
# Test: Primary qHTS for Inhibitors of ATXN expression; further: nearly all actives have a fitted effect of over 55% in size
# Conditions: HEK-293 ATXN2-luciferase reporter, luminescence, 24 h; activity change, negative = inhibition: at 57 µM (top of the series)
# Summary of the method: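 qHTS (up to 57 uM final) was run with 24 h compound exposure of reporter cells at 37 °C. Each well was multiplexed: SteadyGlo luminescence measured ATXN2-luciferase expression after a fluorogenic Gly-Phe-AFC viability readout (25 uM final).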
# On the % scale 0 is the no-effect control and ±100 the full control effect; potency means the concentration at half of the fitted maximal effect; tags describe the fitted curve by direction and shape.
SMILES,"activity change, negative = inhibition",Potency
C[C@H](NC(=O)c1ccco1)C(=O)N1CCCC1,inactive: -11.2%,
O=C1NC[C@@H](c2ccccc2)OC(=O)[C@H](Cc2ccc(F)cc2)CC/C=C/C[C@H]1CC(=O)N(CCO)Cc1ccccc1,,"inconclusive: 39.8 µM [inhibitor, single point]"
COc1ccc(-n2c(O)c(/C=N/Nc3nc(C)cc(C)n3)c3ccccc3c2=O)cc1OC,,"inconclusive: 4.23 µM [inhibitor, partial curve]"
Cc1c(P(=S)(c2ccccc2)c2ccccc2)[n+]2ccccc2n1CCc1ccccc1,,"inconclusive: 12.6 µM [inhibitor, partial curve]"
COc1ccc(-c2noc(CSc3nnc(-c4ccc(Cl)cc4)n3C)n2)cc1OC,inactive: -20.6%,
O=c1c([N+](=O)[O-])cccn1Cc1ccc(F)cc1Cl,,"inconclusive: 18.9 µM [inhibitor, partial curve, poor fit]"
Cc1c(C(=O)NCc2cccc(C(F)(F)F)c2)sc(=O)n1Cc1ccc(F)cc1,,"inconclusive: 39.8 µM [inhibitor, single point]"
COCCCn1c(O)c(/C=C2\N=C(C#N)C(=Nc3ccc(C)cc3)O2)sc1=S,,"inconclusive: 17.8 µM [inhibitor, single point]"
COc1ccc(OCCN2CCC(C(=O)NC(c3ccc(F)cc3)c3ccc4ccccc4n3)CC2)cc1 (centres undefined),,"inconclusive: 35.5 µM [inhibitor, single point]"
COc1ccc(CNC(=O)c2c(Nc3ccccc3C)sc(C(=O)c3ccccc3)c2N)cc1,,"inconclusive: 39.8 µM [inhibitor, single point]"
CCc1nc(Nc2ccccc2O)c2oc3ccccc3c2n1,inactive: -10.9%,
CCN(CC)C(=O)Cc1cn(C)c2ccccc12,inactive: 3.75%,
CCOC(=O)c1cnc2c(OC)cccc2c1Nc1ccc2c(c1)OCCO2,,"inconclusive: 25.1 µM [inhibitor, partial curve, poor fit]"
NC(=O)C(c1ccccc1)(c1ccccc1)[C@@H]1CCN(CCc2ccc3c(c2)CCO3)C1,,"inconclusive: 35.5 µM [inhibitor, single point]"
Oc1cccc(C(Nc2nccs2)c2ccc3cccnc3c2O)c1 (centres undefined),,"inconclusive: 2.99 µM [inhibitor, full curve, poor fit]"
O=C(CN1C2CCCC1CC(NC(=O)C1CCCCC1)C2)Nc1ccccc1C(F)(F)F (centres undefined),,"inconclusive: 14.1 µM [inhibitor, partial curve, poor fit]"
CC(=O)c1ccc(-c2ccc(-c3cc(=O)oc4c(C(C)C)ccc(C)c34)cc2)cc1,,"inconclusive: 25.1 µM [inhibitor, partial curve]"
COCc1nnc(NC(=O)c2ccc(S(=O)(=O)N(C)Cc3ccccc3)cc2)o1,,"inconclusive: 39.8 µM [inhibitor, partial curve, poor fit]"
COc1cc(/C=C/C2=NNC(=O)CC2)cc(OC)c1OC,inactive: 24%,
CC1(C)Cc2ccccc2-c2nnc(SCC(=O)N3CCc4ccccc43)n21,,"inconclusive: 25.1 µM [inhibitor, partial curve, poor fit]"
COc1ccc(Cc2nnc(N/N=C/c3ccccc3O)[nH]c2=O)cc1OC,,active: 3.55 µM
Cc1sc(NC(=S)NC(=O)c2ccco2)c(C(N)=O)c1C,inactive: -3.35%,

SMILES,"activity change, negative = inhibition",Potency
COc1cc(OC)c2c(-c3cccc(-c4ccc(CO)cc4)c3)cc(=O)oc2c1,,"inconclusive: 28.2 µM [inhibitor, single point]"
C#CCOCCOCCOCCNc1nc(N2CCN(C(=O)CCCCCCCCCCNC(=O)[C@H](CCCCN)n3cc(CCCC(=O)O)nn3)CC2)nc(N2CCN(C(=O)CCCCCCCCCCNC(=O)[C@H](CCCN=C(N)N)n3cc(C[C@@H](C)CC)nn3)CC2)n1,,"inconclusive: 22.4 µM [inhibitor, partial curve, poor fit]"
O=Nc1c(O)n(Cc2ccc(Cl)c(Cl)c2)c2ccccc12,,"inconclusive: 22.4 µM [inhibitor, partial curve, poor fit]"
COC(=O)[C@]12CCCCC=C1N(Cc1cccc3ccccc13)C(=O)[C@H](CC(=O)NCCCCc1ccccc1)C2,,"inconclusive: 22.4 µM [inhibitor, partial curve, poor fit]"
COc1ccc(Nc2cc(C)c3cc(NC(=O)Cc4c(F)cccc4Cl)ccc3n2)cc1,inactive: -21.7%,
Cc1cc(Cl)n2c(nc3ccccc32)c1C#N,,"inconclusive: 33.6 µM [inhibitor, partial curve, poor fit]"
Cc1ccc(NC(=S)NNc2ncc(C(F)(F)F)cc2Cl)cc1,,active: 16.8 µM
COc1cc2ccnc(Cc3cccc(OC)c3OC)c2cc1OC,,"inconclusive: 23.8 µM [inhibitor, partial curve, poor fit]"
CCOC(=O)c1c(C)sc2c1N(C(=O)CN(CC)CC)c1cc(Cl)ccc1S2,,active: 31.6 µM
O=[N+]([O-])c1ccc(/C=N/N=C/c2ccc([N+](=O)[O-])o2)o1,,active: 16.8 µM
CC(C)(C)OC(=O)NCCCCCNC(=O)c1[nH]cnc1C(=O)N[C@@H](CCCCNC(=O)OC(C)(C)C)C(=O)OC(C)(C)C,,"inconclusive: 25.1 µM [inhibitor, partial curve]"
COc1ccc(NC(=S)N(CCCN2CCOCC2)Cc2cn(C)c3ccccc23)cc1,,"inconclusive: 10.6 µM [inhibitor, partial curve, poor fit]"
CC[n+]1c(-c2ccc(C)cc2)csc1Nc1c(C)n(C)n(-c2ccccc2)c1=O,inactive: -8.3%,
COc1ccc2[nH]c(C)c(CCN(Cc3cccs3)C(=S)Nc3ccccc3OC)c2c1,,"inconclusive: 28.2 µM [inhibitor, partial curve, poor fit]"
O=C1CC(N2CCN(C/C=C/c3ccccc3)CC2)C(=O)N1Cc1cccs1 (centres undefined),inactive: -18.4%,
Cc1cccc(C)c1NC(=O)Nc1cccs1,inactive: -11.9%,
COc1cccc(CNc2nc3cc(-c4ccccc4)sc3c(=O)n2C)c1OC,,"inconclusive: 20 µM [inhibitor, partial curve, poor fit]"
O=C(CSc1cccc[n+]1[O-])Nc1ccccc1C(F)(F)F,inactive: -2.97%,
O=C(/C=C\c1ccccc1)Nc1ccc(NC(=O)c2ccco2)cc1,,"inconclusive: 29.9 µM [inhibitor, partial curve, poor fit]"
COc1ccc(OCC(=O)N/N=C/c2ccc(O[C@@H]3O[C@H](CO)[C@@H](O)[C@H](O)[C@H]3O)cc2)cc1,inactive: -0.418%,
CN1/C(=C/C(=O)c2nc(S(C)(=O)=O)ncc2Cl)C(C)(C)c2ccccc21,,"inconclusive: 39.8 µM [inhibitor, single point]"
CC(=O)O[C@@H]1CC2C3CCc4cc(OC(=O)c5ccccc5)ccc4C3CCC2(C)[C@H]1OC(C)=O (some centres undefined),inactive: 7.94%,

SMILES,"activity change, negative = inhibition",Potency
Cc1cccc(N2C(=O)CC(Sc3nnc(C)s3)C2=O)c1 (centres undefined),inactive: -3.12%,
CCc1nc2ccc(C(=O)NCC3CCCCC3)cn2c1N(CCC(C)C)CCN(C)C,,"inconclusive: 28.2 µM [inhibitor, single point]"
N#C/C(=C(/O)CSc1ccccn1)c1nc2ccccc2s1,inactive: -19.6%,
S=c1[nH]nc(Cc2ccccc2)n1-c1ccc(Cl)cc1,inactive: 8.44% [at 11.3 µM],
O=C(NN=Cc1ccc2c(c1)OCO2)c1ccc([N+](=O)[O-])cc1,inactive: 16.7%,
CCCOc1ccc(-c2nnc(-c3ccncc3)o2)cc1,inactive: 34.6%,
O=C(c1cc(-c2ccc3c(c2)OCO3)on1)N1CCCCC1,,"inconclusive: 11.2 µM [inhibitor, single point]"
C=CC[C@@H](CC(=O)N[C@H](CO)Cc1ccccc1)C(=O)N[C@@H](C)COC(=O)[C@@H](CC=C)Cc1ccc(F)cc1,,"inconclusive: 20 µM [inhibitor, partial curve, poor fit]"
CCOC(=O)C1=C(CSCc2ccccc2)NC(=O)NC1c1cc(C)ccc1C (centres undefined),,"inconclusive: 20 µM [inhibitor, partial curve, poor fit]"
CC1Cc2nc(SCC(=O)Nc3ccc4c(c3)OCO4)n(Cc3ccccc3)c(=O)c2S1 (centres undefined),inactive: 106%,
Cc1ccc(C)c(N2CCN(CCCNC(=O)CCn3c(=O)c4cccn4c4cccnc43)CC2)c1,inactive: -25.9%,
O=C(Nc1cccc(OC(F)(F)F)c1)C1Cc2c(-c3ccc4c(c3)OCO4)ccnc2O1 (centres undefined),,"inconclusive: 39.8 µM [inhibitor, partial curve, poor fit]"
CCCCCCCCCCCC[N+](C)(C)Cc1ccccc1,,active: 25.1 µM
Oc1c(C(Nc2cccc(C(F)(F)F)c2)c2ccncc2)ccc2cccnc12 (centres undefined),,"inconclusive: 15 µM [inhibitor, partial curve, poor fit]"
Nc1nc(Nc2ccccc2)nc(NC2CCCCC2)c1[N+](=O)[O-],,"inconclusive: 20 µM [inhibitor, partial curve, poor fit]"
CCCCNC(=O)CSc1nnc(C)c2c(C)n(-c3ccccc3)nc12,,"inconclusive: 31.6 µM [inhibitor, partial curve, poor fit]"
COc1ccccc1/C=N\Nc1cc(C)nc(-n2nc(C)cc2C)n1,,"inconclusive: 35.5 µM [inhibitor, single point]"
CCCCNC(=O)/C(=C\c1ccc([N+](=O)[O-])o1)NC(=O)c1ccccc1,,"inconclusive: 6.31 µM [inhibitor, partial curve]"
Cc1cc(/N=C/C=C2\N(C)c3ccccc3C2(C)C)n(CCC#N)n1,,"inconclusive: 35.5 µM [inhibitor, single point]"
COc1ccccc1CNC(=O)C1CCN(c2nc3ccccc3o2)CC1,,"inconclusive: 39.8 µM [inhibitor, partial curve, poor fit]"
